To fix the notation:
T1: UNK ZnF1-3 (human, UniProt Q9C0B0 31-174)
T1 sequence: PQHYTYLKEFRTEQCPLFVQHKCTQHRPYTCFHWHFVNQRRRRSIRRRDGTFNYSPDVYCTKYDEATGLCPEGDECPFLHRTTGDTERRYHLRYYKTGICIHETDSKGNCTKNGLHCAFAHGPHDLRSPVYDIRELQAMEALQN

B1: chr2:5814250:5814251:-_ENSMUSG00000025816_ENSMUST00000102981|mus_hu|mus_mus_mus_hu_True|68_78 (ssRNA)
RNA: GGGAGUUCUACAGUCCGACGAUCUUCCUUUCCGGUUUCUGAAUUUCUGGUAGAACUGCACAGAAAGGUUUAAUAACUUCUAAAAAUUUGAUGCCCAUGGCUGCUGCUGGGGAGGCCCAGGGGGAAACCGCGGCCUCGGCGCUGCAACAGAGGAUUGAGCAUCA
B2: chrX:147030916:147030917:+_ENSG00000102081_ENST00000218200|hu_hu|FALSE|FALSE (ssRNA)
RNA: GGGAGUUCUACAGUCCGACGAUCUAUAAUAUUCCUACCUGCCAAGAUAUAAAAAAGGCACAGAUCAUACAACUUUUUUUGCUAAUGAAAAUGACAAAUGUCACAUCACACACAUUUCAGGGUCCACUAAAAUACUGGAAAAGUCAACAGAGGAUUGAGCAUCA
B3: 98667831_98668982_2498_CDS_ENSG00000065150_ENST00000490680|human|control|control (ssRNA)
RNA: GGGAGUUCUACAGUCCGACGAUCCUCAUCUUGUAGUGACUCUUCGACCUGUUCAUCAUAGUCUUCAUCUUGUCUUUUAACUUGUCGUAAUUCUUGAUUUUUAAAAUGUUCUUCAAGCUUUGCUUUCAAUAUACCUCCCAGUUCCAACAGAGGAUUGAGCAUCA
B4: 17019923_17020043_2989_CDS_ENSMUSG00000059273_ENSMUST00000098789|mouse|control|control (ssRNA)
RNA: GGGAGUUCUACAGUCCGACGAUCUGGACGCUGCCGGGUGUUUGGAGGCCCAGGGGGUGUGGAACGGUGUAGCCUAGGAUCUAGAGCAGGUAGGGACUGCAGGGCAGCAGGCACUGGGGGCACGUCCUGCUUGGGGAUGGGCAGCAACAGAGGAUUGAGCAUCA
B5: chr11:105962086:105962087:+_ENSG00000149313_ENST00000278618|hu_hu|FALSE|FALSE (ssRNA)
RNA: GGGAGUUCUACAGUCCGACGAUCGCCUAUAUCCAAGUUUAAUGGAGAUAGAUCAAAUUCAAGCCGCUGCAAUUCAAAUCCUAGUCCAACACCAAUGGCUUUUAUGAAGCUUUCCUUAAGUGCCCAAUUCCUAUAAAACAUAUCCAACAGAGGAUUGAGCAUCA
B6: chr11:134117265:134117266:+_ENSG00000151502_ENST00000281187|hu_hu|motif|central (ssRNA)
RNA: GGGAGUUCUACAGUCCGACGAUCGUUGGAAAAUGAACGUGUGUUGUCAGUUGGGAGGCAAAGGAAUUGACAAAUGCUUCGGGUUAGAAUAUCAGCUAGGAAAAGGAGGGAUACAGAGCCUGACCUCAUGCUCUGAAAAGGCAACAACAGAGGAUUGAGCAUCA
B7: chr4:83276511:83276512:-_ENSG00000138668_ENST00000353341|hu_hu|motif|central (ssRNA)
RNA: GGGAGUUCUACAGUCCGACGAUCCUUCACCACCUGUUGGGGAUAAGUUGCAAAUGGAAUAAUUUAGUAUGGUUUGUAGCGGUUUUGAUGACCACCUCGCCUGGAUACCUUCCCAUAACCACUCUGCUGGUCACCACCUCUUCCCAACAGAGGAUUGAGCAUCA
B8: chr2:177202359:177202360:+_ENSG00000128654_ENST00000249442|hu_hu|FALSE|FALSE (ssRNA)
RNA: GGGAGUUCUACAGUCCGACGAUCCAUUCAAGUAAAACAUAUUUCAAAAGUUAAGACUCCUGAGACUAACACAUAACUCUAUGACAGCCUGCCUUUACCACGAUCUUCAAAAUAGUGCUGUUCAAUUCUCCUACAGAAAGCAAGCAACAGAGGAUUGAGCAUCA
B9: chr15:31387667:31387668:-_ENSMUSG00000039100_ENSMUST00000090227|mus_hu|motif|central (ssRNA)
RNA: GGGAGUUCUACAGUCCGACGAUCUUUAAUACUAUAUGAAAAUUCUUUUAUAGUUUCUGAAGACCUAUGUUAUACGCUUUCGGUGAGAACUUCUAAAUUAUCGUUCAAAAACAAACACUACCCUUACGAUAUACCUUUAGCAUUCAACAGAGGAUUGAGCAUCA
B10: chr8:87797514:87797515:-_ENSMUSG00000031696_ENSMUST00000034131|mus_hu|FALSE|FALSE (ssRNA)
RNA: GGGAGUUCUACAGUCCGACGAUCAUUAUGGAAUCCACCUGGUCUUGAGAGACAAUUUCUGUGUUAUAAUCCAGAACAUUACUAAGCACAUAACAACUCAUGCUCUUUCUGGACUCGUAGUCAAAGUACUCAAAGAGUGGGUGACAACAGAGGAUUGAGCAUCA
B11: chr22:19452774:19452775:-_ENSG00000070010_ENST00000399523|hu_hu|hu_hu_hu_mus_False|88_98 (ssRNA)
RNA: GGGAGUUCUACAGUCCGACGAUCCUUCUCAUUGUAGUUGAUGGCAAUCACAUCCCCAGUCGUCAGACAGGCGAAGUUUCUCAAUGCAUUUUCUAAUACCGCUUUAGGGUUGGUAAUAUCCAGGAAGUCUGGGCUCUGAGGCUGCAACAGAGGAUUGAGCAUCA
B12: chrX:140365796:140365797:-_ENSMUSG00000031285_ENSMUST00000033642|mus_mus|mus_mus_mus_hu_False|1_1 (ssRNA)
RNA: GGGAGUUCUACAGUCCGACGAUCCUUCUCAUUACUCAGUGCCUGCAAGGUUCUGGUUCGGUAGAAGCUACAGUGGGCGCUGUGAGUGGGGCUAGGCAACCCAUUCAUCCGGGAGCCUCGCAUGUUCCUGGAUGUCUUGUCUCGCAACAGAGGAUUGAGCAUCA
B13: chr1:184378663:184378664:+_ENSMUSG00000026510_ENSMUST00000117245|mus_hu|FALSE|FALSE (ssRNA)
RNA: GGGAGUUCUACAGUCCGACGAUCUAAGAAAGGCAGUAAUUUAGUUGGGCUGAGUGGCCGAGGAAUUCUUUCGUUUUCAUGGUUCUCCUGAACUGAAGAAACAGGCUCUGUUUCAGGUUCUGGACUGCCAGGCUUGCCCUGGCUCAACAGAGGAUUGAGCAUCA
B14: chr13:100192331:100192332:-_ENSMUSG00000052727_ENSMUST00000064762|mus_mus|motif|central (ssRNA)
RNA: GGGAGUUCUACAGUCCGACGAUCUAGCAAAUGAUUAAAUUUAUAAAACGAGUAUUAGAAAGCUCCUAAAUUUCAUAAGCGGUUGGAAACACUUAAAACAUUCAUAUACACUGGGGAAACCAUUCACUAUGAUAUGUAACGUUACAACAGAGGAUUGAGCAUCA

This is one part of the list.

For this assay, the target named is T1, UNK ZnF1-3. Description: nsRBNS (natural sequence RNA bind-n-seq); RBNS binding buffer (assumed for nsRBNS): 25 mM Tris pH 7.5, 150 mM KCl, 3 mM MgCl2, 0.01% Triton X-100, 500 ug/ml BSA, 20 U/ml SUPERase-In, 4 C; UNK is unkempt and MSI1 is Musashi-1; names of the RNAs are library labels; protein concentration not given here; high values mean tight binding.
Molecule B1 had a binding signal of 1.9 enrichment R.
The value for B2 was 1.44 enrichment R.
The molecule B3 gave a binding signal of 0.433 enrichment R.
B4 had a binding signal of 1.45 enrichment R.
Molecule B5 came in with a binding signal of 1.37 enrichment R.
Regarding B6, the binding signal is 1.5 enrichment R.
B7 registered a binding signal of 0.898 enrichment R.
Molecule B8 came in with a binding signal of 1.41 enrichment R.
B9 registered a binding signal of 0.873 enrichment R.
B10 displayed a binding signal of 1.07 enrichment R.
For B11, the binding signal amounted to 0.631 enrichment R.
The value for B12 was 0.534 enrichment R.
The value for B13 was 0.562 enrichment R.
In turn, B14 displayed a binding signal of 1.23 enrichment R.

Values taken from article PMC12136788.
